From PubChem BioAssay AID686971 (National Center for Advancing Translational Sciences (NCATS), 2013)
About 7,500 (2.1%) of roughly 360,000 compounds were called active. Inconclusive results, whose numbers are uncertain, are shown with a selection of clear calls. The call rests on the fitted dose curve; in most records, active means well fitted cell-killing curve with a large enough effect; inconclusive means small, poorly fitted or top-dose-only effect, or effect the other way, or another doubt; inactive means no such curve, though single readings can be large or run the other way. Potencies of inconclusive entries are left out as doubtful fits.

Test: qHTS for induction of synthetic lethality in tumor cells producing 2HG: qHTS for the HT-1080-IDH1KD cell line;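 on activity, negative = toxicity: 0% = DMSO wells and -100% = cell-free medium wells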
Conditions: HT-1080 IDH1 knockdown viability, ATP luminescence, 48 h; activity, negative = toxicity: at 46.1 µM (top of the series) unless noted
Summary of the method: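 HT-1080-IDH1KD cells (IDH1 knocked down), 750/well in RPMI with 5% FBS, treated with compound 48 h at 37 degrees C. Viability by CellTiter-Glo luminescence, normalised to DMSO and no-cell wells; concentration-response curves classed.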
Potency means the concentration at half of the fitted maximal effect; tags describe the fitted curve by direction and shape.

Row | Structure (SMILES) | Potency | activity, negative = toxicity
1 | C=CCn1c(CCCOc2ccc(Cl)cc2Cl)nnc1SCC(=O)Nc1nccs1 | inconclusive [cytotoxic, single point] | –
2 | CCCOc1ccc(-c2csc(N)n2)cc1[N+](=O)[O-] | – | inactive: 10.6%
3 | COC(=O)C(C(=O)OC)c1ccccc1NC(=O)OCc1ccccc1 | inconclusive [cytotoxic, single point] | –
4 | O=C(Nc1ccc2c(c1)CCCN2C(=O)c1ccco1)c1cc([N+](=O)[O-])ccc1Cl | inconclusive [cytotoxic, partial curve] | –
5 | CC1(C)CC2CC(C)(CN2C(=S)NC(=O)c2ccccc2Cl)C1 (stereo not given) | – | inactive: -14.2%
6 | OCCC1CN(Cc2cnc(-c3ccc(Cl)cc3)nc2)CCN1C1CCCC1 (stereo not given) | inconclusive [cytotoxic, partial curve] | –
7 | CC1Oc2ccccc2N(CC(=O)Nc2ccc(F)cc2)C1=O (stereo not given) | – | inactive: 0.879%
8 | Cc1ccc2[nH]c(CNC(=O)c3ccccc3F)cc2c1 | inconclusive [cytotoxic, single point] | –
9 | CC(C)(c1ccccc1)c1ccc(OCC(O)CNC2CCN(Cc3ccccc3)CC2)cc1 (stereo not given) | active: 2.91 µM | –
10 | N/C(=N\OC(=O)c1ccc(Br)o1)c1ccccn1 | inconclusive [cytotoxic, partial curve, poor fit] | –
11 | CCOc1ccc(N(CC(=O)NCc2cccnc2)S(=O)(=O)c2ccc(F)cc2)cc1 | inconclusive [rising, single point] | –
12 | CCOC(=O)C1Nc2ccc(C(F)(F)F)cc2C2c3ccccc3CC12 (stereo not given) | inconclusive [cytotoxic, single point] | –
13 | Cc1ccc(NC(=O)COc2cccc(/C=C3\SC(=S)N(CCC(=O)O)C3=O)c2)cc1Cl | inconclusive [cytotoxic, single point] | –
14 | COc1ccc(NC(=O)/C(Cl)=C(/Cl)S(=O)(=O)Cc2ccc(C)cc2)cn1 | active: 8.2 µM | –
15 | CCCCn1nc(C(=O)NCC(=O)Nc2c(C)cccc2C)c2ccccc2c1=O | – | inactive: 11.6%
16 | Cc1cc(N2CCN(C(=O)/C=C/C(=O)O)CC2)c2ccccc2n1 | – | inactive: -0.755%
17 | COc1ccc(CC(N)c2csc(NC(=O)Nc3ccc(F)cc3)n2)cc1 (stereo not given) | inconclusive [cytotoxic, single point] | –
18 | N#CC1(NC(=O)CSc2nnc(Nc3ccccc3F)s2)CCCC1 | – | inactive: 19.6%
19 | COc1cc(Cl)ccc1OCc1cc(C(=O)N(C)Cc2cccc3cnccc23)no1 | inconclusive [cytotoxic, single point] | –
20 | CCOc1ccc(CCN2C(=S)N([C@@H](CC(C)C)CN3CCCC3CN3C(=S)NC[C@@H]3Cc3ccc(O)cc3)C[C@@H]2Cc2ccc(O)cc2)cc1 (stereo not given in full) | inconclusive [cytotoxic, single point] | –
